Assay results from the RNAGym collection of RNA variant scans (doi:10.7554/elife.90254).
The source gives no read counts; variants with many changes may rest on few reads.

B1: LINE1-full (parent)
chain: UACGUAGGUGGUUUUCCCCUGAUAGUGCUAAGGGGGCCUGGAAGUUUGGACUGGGCAGAGCUCAACACAGCGUGGCAAAGUGGCUGUGGCUAGACUGCCUCUCUGGAUUCCUCGUCACUCAGCAGGGCAUCUCUGAGAGAAAUGCC

Variants of: B1
Assay: self-cleavage, relative activity (ratio to wild type); higher = more cleavage; in vitro, sequencing; the parent is a self-cleaving ribozyme

| Variant | self-cleavage |
| --- | --- |
| A22G C28U G32U A57U A65G | 0.09 |
| U20C A50G A59G C116A | 0 |
| U20C U130C A140G | 1.6 |
| A22G A30U U52C | 0.42 |
| U20C U26A A50U U109C U115C A121G | 0 |
| A22C A107G A140G | 2.69 |
| G21A A30U A79U U100C | 1.27 |
| U20A U29C A65G A138G | 0 |
| U20C U47C A94U A121G A141G | 0.71 |
| U20C C76U G82C | 1.51 |
| U20C G35A A42G U91C | 0.43 |
| U20C A124C C128U U143C | 1.85 |
| U20C U23C G82A G106A | 1.93 |
| U20C U62C U100A | 0.13 |
| A22G A57U A69G U81C | 0 |
| U20A U45C A78G | 1.42 |
| G21A A57G U62C | 0 |
| U20A U29C A59G U130C U134G | 0 |
| A22G A43G U85C | 0 |
| U20C A57G A138G A141G | 1.34 |
| U20A U119A U130C U143C | 1.59 |
| U20A A94G A141U | 0.56 |
| U20C U26A U29A | 0.59 |
| U20C U81A U104A C133A | 1.21 |

| Variant | self-cleavage |
| --- | --- |
| U20C A64G A78G | 0.23 |
| G21A U73C U87A U112A U134A | 0.12 |
| U20C U29C A79G U132A U143C | 1.25 |
| U20C U47C A65G A117U U130A | 0 |
| U20C U45C A57U | 0.31 |
| U20G A77G A92U | 1.88 |
| G21A A69G A94U U115A C146U | 0.23 |
| A22G G74A U130C | 1.3 |
| A22G A94G U119C | 0.54 |
| U20C A59G A64G | 0.16 |
| U20A A77G U132C | 1.65 |
| A22G A65G U96A U132A | 0 |
| U20C C68U U87C U96A | 0.04 |
| U20C A50G U109C U132C | 0.71 |
| U20A U47C U96A | 0.04 |
| A22G G75C C99U | 0.31 |
| U20C A30G U115C | 2.7 |
| U20C U45G A50G | 0.92 |
| G21A U85C A124G | 0.05 |
| A22G A57G C68U U132G | 0.37 |
| U20A U112A A140G | 1.76 |
| U20C U45C C95U U143A | 0.17 |
| U20C U96A A107G | 0.12 |
| U20C A94G U108A C123U | 0.25 |

| Variant | self-cleavage |
| --- | --- |
| G21A A59G U104C A117U A124G A136G | 0 |
| U20C A64G A77U A138U | 0.35 |
| U20C A43U A65G A69U | 0.73 |
| U20C A67G A79G | 0.92 |
| U20A A59G A78U | 0.08 |
| U20G A65G U132C | 0 |
| U20C U91C A141G | 1.02 |
| A22G A50G A64U A65C | 0 |
| U20G A31U A94U | 0.12 |
| A22G A107G U119A | 2.25 |
| A22G C37U U73A | 0.98 |
| U20C C71U A124G | 0.55 |
| U20G A31U U112C A124G U132C A138G | 0 |
| U20C U115C U143C | 1.59 |
| A22G A50G A64C A67G C68A A141G | 0 |
| U20C U26C A42G A65U A138G | 0.39 |
| A22G A42G A64U C113U | 0.49 |
| U20A U29C U115C A136G | 2.37 |
| A22G A67G A92G | 0 |
| U20C U87G U132A | 0.14 |
| A22C A42G A67U C128U | 0.1 |
| U20C U87A U109C | 0.44 |
| U20C U26C U115C A140G | 1.15 |
| A22G G44U G97A A124G | 0.13 |

| Variant | self-cleavage |
| --- | --- |
| U20A U39C A136G | 1.41 |
| U20C U46G U62C A94U | 0.09 |
| A22G A42G A43G | 1.31 |
| A22G A67U A78G C90U U108C | 0.04 |
| G21A A65G C68A U96C U134C | 0.05 |
| U20C A94G A107U A138G | 0.27 |
| A22G A42G A57G U100C | 0 |
| U20C U26C G75U U143A | 0.46 |
| U20C A43G U91C U143A | 0.63 |
| G21A A124U A142G | 1.48 |
| A22G A92G U102A A117U | 0.12 |
| U20C U29C A57C | 0 |
| U20C G25A A42G | 1.31 |
| U20C U96C A124U U134G | 0.11 |
| A22G G34A G40A U115C | 1.04 |
| U20C A92G U96A | 0.13 |
| G21U U39A C146U | 0.74 |
| U20C A50G A57U A79G | 0.34 |
| U20A A43G U112A U115C | 1.1 |
| U20C U45A G83A G139A | 1.03 |
| U20G U96C U109C | 0 |
| U20C A22U G144A | 0.72 |
| U20C G25A A50G A67G | 0.66 |
| U20C C71U U104A A121G | 0.27 |

| Variant | self-cleavage |
| --- | --- |
| U20C U45C U134C | 1.23 |
| U20C A69G U109A | 0.79 |
| U20C A79C U130A | 2.7 |
| G21A A69U U143C | 0.04 |
| A22C U47A A129U | 1.24 |
| U20C U29A A65G | 0.16 |
| A22G A117U U143C | 1.06 |
| U20C A77U A121U | 1.91 |
| U20C A59G A124U A138U | 0.33 |
| U20C G93A U102C | 0.07 |
| U20C U85C G114U | 0.18 |
| G21A A59G U96G | 0.07 |
| U20A U87C U108C | 0 |
| U20A U91A A138G U143C | 1.37 |
| U20A C95U U108A U130C | 0.25 |
| U20A U85C U119A | 0.28 |
| U20A A42U A138G | 0.95 |
| U20A G35U A69G A129G | 1.48 |
| U20C U46C U52C A57U | 0.49 |
| U20A U52C A141G | 0.97 |
| A22G G125A A140G | 1.15 |
| U20A U73A C110U | 1.38 |
| G21U U100C U130C | 1.78 |
| U20C A59G A136G | 0.22 |

| Variant | self-cleavage |
| --- | --- |
| G21A C63U C71G C110A A129C A141G | 0.1 |
| U20A U81A A94U | 0.52 |
| A22G A42G U115C | 2.76 |
| A22G G55A A117G U119C | 0.38 |
| A22G A24G U104G | 0.77 |
| U20A G86U A141G | 0.05 |
| A22G A77U A136U | 1.14 |
| U20A U119G A140G | 1.76 |
| A22G C28U U115A | 0.94 |
| U20C A22G U47A A129G | 0.41 |
| U20G U29C A64U U87A U119C A124G | 0.38 |
| U20C G58U U73C U91C | 0.15 |
| A22G A77G A79G A142G | 0.47 |
| U20C G27U A79U C131U | 1.63 |
| A22C A31U A141G | 0.92 |
| A22G A50G A140G | 0.25 |
| A22G G32A U130G | 1.39 |
| A22G A65U A142G | 0.45 |
| A22G A65G A79G | 0.31 |
| U20A U91C G114A | 0.84 |
| U20C A30G A67U U104A | 0 |
| G21A A22C U132C A141U A142G | 1.8 |
| U20C A22G U104A U108C | 1.7 |
| A22G G82U U91A A107G A138G | 0.5 |

| Variant | self-cleavage |
| --- | --- |
| U20C U45G U73A A117U | 1.66 |
| A22G G58A A138G | 0.11 |
| U20A U26A U96A C113A A142G | 0 |
| U20G A67G U109C | 1.02 |
| A22G A67G G80U U102C | 0.55 |
| U20A U26C A57U U130A A140G | 0 |
| U20C A42U G105A | 1.33 |
| U20C U47C U73A | 2.36 |
| A22G C56U A140U | 0.15 |
| A22G C61U A94U | 0 |
| U20C A31G U62A C63U A77U A140G | 0 |
| U20C U62A G125U | 0.02 |
| U20C U130C U134C | 1.15 |
| A22G A59U G114A A129U | 0.9 |
| U20C U73C U85A | 0.07 |
| A22G A42G A59G A79U U112C A117U A129U | 0.64 |
| U20C A64G G72U | 0.16 |
| U20A A79U U91C A129C | 0.89 |
| U20C C37U U45A U62G U112C | 0.02 |
| G21U C37U U52C U143C | 0.81 |
| A22G A31G A50G G74A U91A | 0.37 |
| U20A A107U U112C | 1.07 |
| A22G A65G A67U | 0.09 |
